Measured values: the supplement of paper PMC11417369
± gives the standard deviation of the averaged measurements. Some of the results follow.

Test system: PfAP2-G AP2 domain (GST-tagged)
Assay: gcPBM binding intensity (ln(normalized median fluorescence intensity)); higher = stronger DNA binding
Method in brief: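 An Agilent 4 × 180k array carrying primer-extended double-stranded 36-bp intergenic genomic probes and negative controls received GST-tagged P. falciparum DNA-binding domains expressed in E. coli, about 25 μg on average, for 1 h. The binding buffer contained 1× PBS, 1% milk, 0.2 mg/ml BSA, 0.5% salmon testes DNA and 0.03% Triton X-100. Binding intensity is the top Masliner-normalised natural-log median intensity across replicate spots of either probe orientation, read after Alexa488 anti-GST antibody staining and a 488 nm scan.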

Sequence	gcPBM binding intensity (ln)
TAAAGGATTTTCGAAGCATGCCACCTGTGACATACT [TGCATGCA_site130]	9.86 ± 0.014
TTCTTTTTAAATTACACACACATATATATCTGTATA [CACACA_site5863]	9.91 ± 0.11
ATGAACATACAATATACACACATATAGATTTATATT [CACACA_site6524]	9.83 ± 0.071
TCATTATTAATATGTAGTACATTATATGATATGTAT [XGTACX_site8978]	11.4 ± 0.85
CATTCAAAGAAAAACTGTACGTGTAGCAAACGTCAT [XGTACX_site2576]	11.6 ± 0.81
CAAATACCCGGACACACACACACAAAAAAAAAAAAA [CACACA_site4441]	11 ± 0.88
ATGGGTATATTTCCACGTACAAAAAATCCGAATTGC [XGTACX_site1490]	11.3 ± 0.9
ATATAATTACATTGATGTACACGAAATGATTAACAT [XGTACX_site5183]	11.7 ± 1.1
TTTATACAATTAGACACACACAAAAAGTATATATAT [CACACA_site1082]	10.14 ± 0.078
TGATTTGTGCCGATTTGTACACATTTATATATATAT [XGTACX_site2154]	11.3 ± 0.78
AACAGACAAAGACACACACACATACATACATACATA [CACACA_site6351]	10.2 ± 0.22
TATCATATTTTTATATGTACATAACATAAAAAAAAA [XGTACX_site2152]	11.2 ± 0.79
TACATACATACATACACACACATATATATATATATA [CACACA_site1944]	10.5 ± 0.23
ATTTTTTCATATTCTACACACGTGAACAAATGAGTC [CACACA_site5635]	10.3 ± 0.22
CAATGTTAACATATTACACACATATGTATATATAAT [CACACA_site8878]	10.12 ± 0.035
GACAACTCTTTTCATACACACAAAAAAAAAAAAATA [CACACA_site2361]	10.3 ± 0.35
TCACATATATATTAATGTACATATATTTTTTATGTA [XGTACX_site5125]	11.2 ± 0.54
GATATATCCTATGTTATTTTTATGGTGTAATTTAGT [XGTACX_negctrl_site112]	10 ± 0.14
CATCCACAAATATGTACACACATATATAAATATGTA [CACACA_site7407]	11.4 ± 0.93

Sequence	gcPBM binding intensity (ln)
ATAATAACAAGGCGCTGTACTGTACCGTTTTTCATA [XGTACX_site6135]	11.2 ± 0.77
TTTTTTTTATGTATCACACATAATTTTTTATTATGA [CACACA_site5534]	9.97 ± 0.057
AGAAAGAAAATATATACACACAAAAAAAAATATATA [CACACA_site1412]	9.945 ± 0.049
GATTTATACAAATATGTACACACTAATTATATATTA [CACACA_site8045]	11.5 ± 0.87
GGCATGACTATCTGCACACATAAAAATAAGAAATAC [CACACA_site841]	10.2 ± 0.2
TTTTTTTTCTCACAAAAAATAATTAACAAAAAGGAA [XGTACX_negctrl_site154]	10.2 ± 0.32
ATAAACAGAAAAAAAAAAAAAAAAAAAAAAAAAAAA [CACACA_negctrl_site143]	9.69 ± 0.42
ATAAAAAAAAAAAATACACACATATATTTATTTATA [CACACA_site6903]	9.6 ± 0.042
TTTATATGGATTTTTTTTTAATATTTCTTTTAATTT [TGCATGCA_negctrl_site361]	9.62 ± 0.11
TTAATATAAGCAAATACACACACACCGATATATATA [CACACA_site9269]	10.1 ± 0.16
GTTGCACAATGTTACACACACAATATAGATCGTTAA [CACACA_site6717]	10.07 ± 0.028
TAAAAAAAAAAAAAAAGTACAAAAAAAATATTTTTT [XGTACX_site7941]	11.4 ± 0.57
ATATGCTATTTACTAGTGCAAAATATTTAAAATATG [GTGCAC_site9517]	10.2 ± 0.28
TTATTCTAAAAATATACACACAACAACAAACAAACA [CACACA_site1543]	10.5 ± 0.41
ATGTGTTTCTTCAATTGTACTAAAAGGTATATATTG [XGTACX_site4608]	11 ± 0.65
TTCAGGTAATAACATTGTACATGTGTATCATAATTA [XGTACX_site6740]	11 ± 0.47
TTTTTTTTTTTTTTTTTTTTACAGAAAAATATTAAA [CACACA_negctrl_site128]	9.62 ± 0.45
AATCATTAAAGCATAATGTTTATGATCAATATGAAA [CACACA_negctrl_site887]	9.715 ± 0.064
TAGTAACTTGTATTCACACAAATTATATTATATTAC [CACACA_site5041]	9.965 ± 0.021

Sequence	gcPBM binding intensity (ln)
TATATAATATATAAATGTACTTTTGTCTTATATGAA [XGTACX_site7211]	11 ± 0.73
ATACTATAATATAAAACACACATATGTACCTTCTAA [CACACA_site7323]	10.8 ± 0.54
ATTATTTAAATTTAACGTACGGAATAAGACATAGAT [XGTACX_site8622]	11.1 ± 0.59
AAAAAAAATAATGTTGCACACAACAACAAACAAAAA [CACACA_site3290]	10.1 ± 0.31
AATATATATATATGTGCACACATATATAATATGTAT [CACACA_site716]	10.2 ± 0.18
TACACCCACATATATATACACACTTTTATTTAAATA [CACACA_site1596]	10.2 ± 0.071
CAATATGGAAAATAAAGTACGCACACAAAAATTCTC [XGTACX_site4793]	11.5 ± 0.79
TAGATAAAATGAACATGTACTCATCTTAATATATAT [XGTACX_site34]	11.4 ± 1.1
TGCTCTAATTTATATACACACAAATATGTACACATA [CACACA_site7845]	11.7 ± 1.2
TTATATCCAACTTGAAAAAAGGTATATGTTTATATA [CACACA_negctrl_site1746]	9.91 ± 0.028
TTTTTTTTTTTTTGGAGTACATGTTTATAACATAAT [XGTACX_site1799]	11.6 ± 1.1
TTTCATAAATAATAAAATAAAATATGAAGCAAAAGG [CACACA_negctrl_site1767]	9.99 ± 0.11
TAATTTTTTTAAGAGAGTACATGACTCAACAGTTTA [XGTACX_site3103]	11.1 ± 0.75
GATAATACATAAATTTATAAGTGGAAGAATAAATAA [CACACA_negctrl_site698]	10.09 ± 0.057
GAAATATTACAAAGTACATGCAACGAAAATTTCAGT [TGCATGCA_site608]	10.9 ± 0.52
CTTTTAGAATAATCAGTGCAAAAAAAAAAAAAAAAA	9.75 ± 0.62
TTTTTTTTCAAAAATACAAAAAAAAAAGAAAAAAAC [CACACA_negctrl_site625]	10.3 ± 0.33
ACAAACAAATAAATATGTACGAATAAATAAAATTTT [XGTACX_site4664]	11 ± 0.56
